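All cell lines were grown in 96-well plates and treated with compound for 48 hours. Here, GI50 denotes the concentration required for 50% inhibition of growth.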 For part of its entries the source gives two or more results. The other results are left out here. An entry can have further records. For some assays here: A record mostly stands for its own series of concentrations, which the source does not state; some values may only mark the edge of a range. For some assays here: Results that share an entry are repeated measurements in other runs, samples, wells, individuals or studies. Brackets tell where a record comes from. Letters hold for one entry only.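 TGI is the concentration that stops growth completely.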 Where a SMILES comes first, the peptide text is derived from it. [ ]: non-standard residue; d: D form. Aoe = N[C@@H](CCCCCC(=O)[C@@H]1CO1)C(=O)O
Experiments:
Experiment in all cases: NCI anticancer screen, dose series, 48 h
K-562 leukemia = system: K-562 leukemia
MOLT-4 leukemia = system: MOLT-4 leukemia
NCI-H23 lung = system: NCI-H23 lung
SK-MEL-5 melanoma = system: SK-MEL-5 melanoma
SR leukemia = system: SR leukemia
UACC-257 melanoma = system: UACC-257 melanoma
HS 578T breast = system: HS 578T breast
MDA-MB-435 = system: MDA-MB-435
NCI-H522 lung = system: NCI-H522 lung
SK-MEL-28 melanoma = system: SK-MEL-28 melanoma

CC1=CC(=C(c2ccc(N)cc2)c2ccc(N)cc2)C=CC1=N
TGI (K-562 leukemia): 5.23 µM [sample A] and > 100 µM [sample B]

CCCC(=O)NC1CCc2cc(OC)c(OC)c(OC)c2-c2ccc(OC)c(=O)cc21 (stereo unspecified)
TGI (MOLT-4 leukemia): 437 nM and > 100 µM | TGI (NCI-H23 lung): 658 nM and > 100 µM | TGI (SK-MEL-5 melanoma): 1.7 nM and > 100 µM | TGI (SR leukemia): 630 nM and > 100 µM

O=C1N[C@@H](Cc2ccccc2)C(=O)N2CCC[C@@H]2C(=O)N[C@@H](CCCCCC(=O)[C@@H]2CO2)C(=O)N[C@H]1Cc1ccccc1 (cyclo(FF[dP][Aoe]))
TGI (UACC-257 melanoma): 378 nM and 18.9 nM

CC1(C)CCC2=C(O1)c1ccccc1C(=O)C2=O
GI50 (HS 578T breast): 233 nM [sample A, 1 test] and 2.41 µM [sample B, 1 test] | TGI (MDA-MB-435): 4.75 µM [sample A] and 355 nM [sample B]

C=CC(=O)NCc1cccc(Nc2ncc(Br)c(NCCCNC(=O)C3CCC3)n2)c1
GI50 (NCI-H522 lung): 1.76 µM and 171 nM

COc1ccc2[nH]cc([C@@H]3C4CCC(C4)[C@H]3NCc3cccc(CN[C@H]4C5CCC(C5)[C@@H]4c4c[nH]c5ccc(OC)cc45)c3)c2c1
TGI (K-562 leukemia): > 100 µM [sample A] and 433 nM [sample B]

CC1CCC2(C(=O)O)CCC3(C)C(=CCC4C5(C)CCC(O)C(C)(C)C5CCC43C)C2C1C (stereo unspecified)
TGI (SK-MEL-28 melanoma): > 100 µM [sample A, 1 test] and 4.15 µM [sample B, mean of 5 tests]

Reference: PubChem BioAssay (NCI)
